Data on 113 molecules can be found in PubChem BioAssay AID488969 (Vanderbilt High Throughput Screening Facility, 2010).

Whole data set: some 110,000 compounds, median “z-score” near -0.1, cut for the highest 2% near 2. Some of the results follow. Calls of active or inactive are those of the source.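 How the source made its calls: active means z-score in the third read window above 3 or below -3; inactive means the rest.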

This experiment concerns the target Metabotropic glutamate receptor 8 (Rattus norvegicus) (UniProt P70579). Kind of experiment: rat mGluR8 modulators via GIRK flux, primary screen, cell-based, thallium flux, HTS (AID 488969). The following applies: HEK293 rat mGluR8, GIRK (G protein-gated inwardly rectifying potassium channel) thallium flux, FluoZin2; at 10 µM; stronger effect = higher value; submaximal glutamate (EC20) added with thallium.
Chain of UniProt P70579 (P70579 whole entry, looked up): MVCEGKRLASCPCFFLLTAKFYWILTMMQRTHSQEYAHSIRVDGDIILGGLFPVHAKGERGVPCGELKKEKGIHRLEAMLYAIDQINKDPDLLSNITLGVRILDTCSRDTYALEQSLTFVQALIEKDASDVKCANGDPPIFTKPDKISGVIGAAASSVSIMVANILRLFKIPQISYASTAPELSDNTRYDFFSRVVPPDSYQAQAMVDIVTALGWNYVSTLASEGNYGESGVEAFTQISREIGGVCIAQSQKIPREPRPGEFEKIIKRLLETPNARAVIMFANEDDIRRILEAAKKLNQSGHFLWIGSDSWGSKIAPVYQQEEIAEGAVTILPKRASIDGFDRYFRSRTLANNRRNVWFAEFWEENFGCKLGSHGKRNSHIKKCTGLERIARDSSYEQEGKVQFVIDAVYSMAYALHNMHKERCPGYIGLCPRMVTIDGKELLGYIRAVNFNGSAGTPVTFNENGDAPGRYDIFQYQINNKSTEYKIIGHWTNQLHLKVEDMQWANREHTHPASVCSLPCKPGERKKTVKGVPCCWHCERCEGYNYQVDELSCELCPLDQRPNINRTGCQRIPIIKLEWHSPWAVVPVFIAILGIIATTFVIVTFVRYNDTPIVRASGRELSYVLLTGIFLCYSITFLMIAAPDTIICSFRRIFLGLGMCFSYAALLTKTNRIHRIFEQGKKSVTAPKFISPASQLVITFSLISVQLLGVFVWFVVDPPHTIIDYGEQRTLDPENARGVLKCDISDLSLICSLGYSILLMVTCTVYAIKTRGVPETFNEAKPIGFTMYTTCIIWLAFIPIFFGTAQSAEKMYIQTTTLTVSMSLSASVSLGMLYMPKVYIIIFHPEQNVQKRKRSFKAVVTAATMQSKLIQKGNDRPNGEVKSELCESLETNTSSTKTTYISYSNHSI
The molecule `Nc1n[nH]c(-c2cccc([N+](=O)[O-])c2)n1` came in with a z-score of -0.125. In the case of `C/C(NC(=O)c1cccs1)=C1\C(=O)C[C@@H]2[C@H]1C2(C)C` it was -0.47; in that of `COc1cc(NC(=O)c2cc3sccc3n2C)cc(OC)c1`, -0.0259; in that of `c1coc(-c2nnc3sc(-c4cccs4)nn23)c1`, -0.343.

On to `COC(=O)CCC(=O)NNC(=O)c1ccc(Br)cc1`, for which the z-score amounted to 0.129.

For `CC(C)[C@H](NC(=O)c1ccccc1)C(=O)OCC(=O)c1ccc2c(c1)NC(=O)CO2`, the z-score is -0.276. With `Cc1cc(C)c(NC(=O)c2ccccc2N(C)S(C)(=O)=O)c(C)c1`, the z-score was 0.0701. The result for `O=C(CCN1C(=O)c2ccccc2C1=O)N1CCOCC1` reads 0.585; that for `CCOc1ccc(OCCCCOc2ccccc2C(C)=O)cc1`, -0.286. In the case of `COc1ccc(CCNc2oc(-c3ccco3)nc2C#N)cc1` it was -1.45; in that of `O=C(NCc1ccccn1)c1ccc(Cl)cc1Cl`, 0.136. In the case of `OCCNCC(O)Cn1ccc2ccccc21` (stereo not drawn) it was 0.00536. Turning to `S=c1[nH]nc(-c2cccc(Br)c2)o1`, the z-score is -0.124. Molecule `COc1ccccc1C1(CC(=O)O)CCOC(C)(C)C1` (stereo not drawn) yielded a z-score of -0.25. The result for `O=C(c1cc([N+](=O)[O-])ccc1N1CCN(S(=O)(=O)c2ccc(Cl)c(Cl)c2)CC1)N1CCOCC1` reads -0.243; that for `CC(Nc1ccccc1)C(=O)Nc1ccc(F)cc1` (stereo not drawn), -0.0628; that for `O=C(O)c1ccc(NC(=O)C2CC=CCC2C(=O)O)cc1` (stereo not drawn), 0.0442. As to `Nc1nc(-c2ccccc2)cn1N`, the z-score was -0.0937. In the case of `Cc1cccc(/C(N)=N/OC(=O)c2cccs2)c1` it was 0.161. `COC(=O)c1ccc(COC(=O)c2[nH]c(C)c(C(C)=O)c2C)o1` gave a z-score of -0.813.

Turning to `COc1ccccc1NC(=O)N1CCCC1C(=O)Nc1ccc(NC(C)=O)cc1` (stereo not drawn), the z-score was -0.164. In the case of `C=CCn1c(COc2ccc(Cl)cc2)nnc1SCC(=O)N/N=C/c1ccccc1` it was -0.13; in that of `CC(Sc1nnc(-c2ccccc2)c(-c2ccccc2)n1)C(=O)N1CCc2ccccc21` (stereo not drawn), -0.603; in that of `CCOC(=O)c1c(NC(=O)CSc2nc3ccccc3s2)sc(C)c1C`, 1.4. In the case of `CC1=C(C(=O)OC(C)C)C(c2cccnc2)n2ncnc2N1` (stereo not drawn) it was 0.0927; in that of `CCCCOc1ccc(NC(=O)C(=O)NCCC2=CCCCC2)cc1`, 0.0775. Regarding `CCCCCCC(=O)NN1CCN(C)CC1`, the z-score is -0.0882. For `CCOCCCNC(=O)C(NC(=O)c1ccc2c(c1)OCO2)c1ccc(OC)cc1` (stereo not drawn), the z-score was -0.371.

Turning to `O=C(NC1CCCCC1)C(c1ccccc1)N1CCOCC1` (stereo not drawn), the z-score is -0.0618.

In turn, `CCCCn1c(NC(C)CC)nc2c1c(=O)[nH]c(=O)n2C` (stereo not drawn) registered a z-score of 0.471. In the case of `COC(=O)c1cc(OC)c(OC)cc1NC(=S)N1CCN(C)CC1` it was -0.191; in that of `Cc1cccc(OCc2nnc(NC(=O)Cc3cccs3)s2)c1`, -0.55. In the case of `COc1ccc(OC)c(NC2=NC3(CCCC3)N=C(N)N2)c1` it was -0.103; in that of `Cc1[nH]nc2c1C1(CCN(Cc3ccccc3)CC1)C(C#N)=C(N)O2`, 0.827; in that of `O=C(COc1ccc(Cl)cc1Cl)NC(=S)N1CCCc2ccccc21`, active: 13.2.

Regarding `CC(=O)c1c(NC(=O)C(C)C)nc(C)nc1-c1ccccc1`, the z-score was determined as 0.562. In the case of `Cc1ccc(C)c(-c2csc(N)c2C(=O)OC(C)C)c1` it was 0.0236. The result for `CCOC(=O)C(C)n1cnc2c(nnn2-c2ccc(OC)cc2)c1=O` (stereo not drawn) reads -0.258; that for `O=C(OCc1cccc(F)c1)c1ccc2c(c1)-c1ccccc1C2=O`, -0.0794. `Cc1ccc(-c2nn(C)c(=O)c3ccccc23)cc1S(=O)(=O)NCCO` showed a z-score of 0.214. On to `Cc1ccc(CN2CCN(CC(=O)N3CCC(C(N)=O)CC3)C2=O)cc1`, for which the z-score was -0.229. The result for `CCOc1ccc(-n2cc(C(=O)Nc3cccc(Cl)c3)c3cc(OC)c(OC)cc3c2=O)cc1` reads -0.164; that for `Cc1cc(C)c2c(CN3CCN(C)CC3)cc(=O)oc2c1`, -0.5. In the case of `Cc1nnc(-c2cnn(C)c2N)n1Cc1ccccc1F` it was 0.324. The result for `Cc1cc(NC(=O)c2cccc(F)c2)no1` reads 0.125; that for `Cc1ccc(NC2=C(N3CCOCC3)C(=O)c3ccccc3C2=O)cc1`, -0.00307.

Turning to `O=C(CCC(=O)c1ccc(Oc2ccccc2)cc1)Nc1cccc(Cl)c1`, the z-score is -0.0331. The molecule `Cc1ccc(Cl)cc1-c1ccc(C=Nc2ccc(N3CCOCC3)cc2)o1` had a z-score of -0.123. The result for `CC(C)CCNC(=O)Cn1c(NCCC(C)C)nc2c1c(=O)n(C)c(=O)n2C` reads -0.109; that for `COc1ccc(/C=N/NC(=O)CCCOc2ccc(Cl)cc2Cl)cc1`, -0.126. In turn, `CCOc1ccc(S(=O)(=O)Nc2ccccc2SC)c2cccnc12` gave a z-score of -0.258.

In the case of `Fc1ccc(Oc2nc(-c3ccccc3)nnc2C(F)(F)F)cc1`, the z-score was determined as 0.388. On to `O=C(COC(=O)c1cccnc1Cl)Nc1nc(-c2ccccc2)cs1`, for which the z-score is -0.566. In the case of `CC(C)CC(=O)Nc1cccc2c1C(=O)N(c1ccccc1)C2=O` it was active: -3.2; in that of `COCCNC(=O)Cn1nc(C(F)(F)F)c(Cl)c1C`, -0.0378. The result for `COc1ccc(Br)cc1/C=C/C(=O)Nc1c(C)cccc1C` reads -0.182; that for `CCC(C)(C)n1nnnc1CN1CCC(NC(=O)c2ccccc2C)CC1`, 0.0757. Molecule `COc1ccc(-c2c(C#N)c(SCC(=O)c3cc4ccccc4oc3=O)nc(C)c2C(=O)Nc2ccccc2)cc1` yielded a z-score of -0.154. Molecule `Cc1cc(C)nc(SCC(=O)N/N=C/c2cccs2)n1` returned a z-score of -0.00188. The result for `Cc1cc(OCC(=O)Nc2ccc(N3CCN(C(=O)c4ccco4)CC3)cc2)cc(C)c1Cl` reads -0.102; that for `CCOC(=O)N1CCC(NC(=O)C(CC(C)C)NC(=O)C2CCC(C)CC2)CC1` (stereo not drawn), -0.0395.

`O=C(CN1CCN(c2nc(-c3ccccc3)cs2)CC1)NNC(=O)c1ccc(Br)cc1` displayed a z-score of -0.222. For `CCOC(=O)N1CCN(C(=O)C2CCN(Cc3nc(-c4ccccc4C)oc3C)CC2)CC1`, the z-score was -0.822. `CCNC(=S)NNC(=O)c1cc(-c2cccc(OCC)c2)nc2ccccc12` showed a z-score of -0.498. The result for `Cc1ccccc1Cn1ccc(NC(=O)CCSc2nc(-c3ccco3)cc(C(F)(F)F)n2)n1` reads -1.32.

`CCCn1nnc(NC(=S)NC(=O)CC)n1` had a z-score of -0.197. The result for `CCC(c1nnnn1C1CCCC1)N1CCN(Cc2ccccc2)CC1` (stereo not drawn) reads 0.0349; that for `O=C(CCCC(=O)N(CC(=O)NC1CCCC1)Cc1ccccc1)Nc1ccccn1`, -0.397; that for `CCCN1CN(Cc2ccco2)c2nc3ccccc3n2C1`, 1.21.

`Cc1ccc(C(=O)COC(=O)CCC(=O)Nc2cc(Cl)ccc2Cl)cc1[N+](=O)[O-]` came in with a z-score of 0.229. In the case of `Cc1nnc(SCc2ccccc2)nc1/C=C/NOCc1ccc(Cl)cc1Cl` it was -0.245. Regarding `COc1ccc2cc(-c3nc4ccccc4n3C)c(=O)oc2c1`, the z-score was found to be 0.139. In turn, `CCCCc1ccc(Nc2ncccc2C#N)cc1` yielded a z-score of 0.0326. In the case of `O=C(CCC1CCCC1)N1CCN(C(=O)C2CC2)CC1` it was 0.124. The result for `COc1cc(/C=N/NC(=O)C2(O)c3ccccc3-c3ccccc32)ccc1O` reads -0.34; that for `O=C(CSc1nc2nc3c(cc2c(=O)n1-c1ccccc1)CCCC3)Nc1ccccc1`, -0.468; that for `CCOC(=O)CSc1nc2ccccc2c(=O)n1NC(=O)c1ccccc1`, -0.107. In turn, `CN(C)CCN(Cc1ccccc1)c1nccc(N(C)C)c1C#N` returned a z-score of -0.252. In the case of `OC(COCCOc1ccc(Br)cc1)CN1CCCCC1` (stereo not drawn) it was 0.448; in that of `Cc1ccccc1Nc1cc(C(=O)NCc2ccco2)c2ccccc2n1`, -0.0644; in that of `O=S(=O)(NCCC(c1ccc(F)cc1)c1ccco1)c1ccccc1` (stereo not drawn), -0.444.

Molecule `C=CCn1c(SCC(=O)Nc2ccc(-c3nc4ccc(C)cc4s3)cc2)nnc1-c1ccccc1` gave a z-score of 0.381.

The molecule `COCCN(C(=O)c1ccco1)c1nnc(-c2ccc(OC)cc2)s1` displayed a z-score of -0.82. The result for `O=C(CCc1ccccc1)Nc1ccc(Cl)cn1` reads -0.45; that for `COc1ccc(Cn2c(O)c(C=Nc3ccc(OC)cc3)c3ccccc3c2=O)cc1`, -0.178. In the case of `CN1C(=O)CSc2ccc(NC(=O)NCCC3=CCCCC3)cc21` it was -0.0569; in that of `CCN(CC)S(=O)(=O)c1cccc(C(=O)Nc2cccc(C)c2)c1`, -0.358.

As to `O=c1c2c([nH]c3ccccc13)CCCC2`, the z-score is -0.224. The result for `CCC(C)(C)n1nnnc1C(c1cc2cc(C)cc(C)c2[nH]c1=O)N1CCN(C(=O)c2ccco2)CC1` (stereo not drawn) reads -0.323; that for `C=CCNc1nc2c(c(=O)n(C)c(=O)n2C)n1Cc1ccc(F)cc1`, -0.0556; that for `Cc1cccc(N2C(=N)SCC2=O)c1C`, -0.273. `CCOc1ccccc1NC(=O)/C(C#N)=C/c1c(C)nn(-c2ccccc2)c1Cl` had a z-score of -0.199. As for `Cc1ccc(C(=O)Nc2ccc3c(c2)OCO3)o1`, the z-score is -0.231.

`Cc1cccc(-n2c(SCC(N)=O)nnc2-c2ccccn2)c1C` yielded a z-score of -0.0423.

In turn, `CCc1ccc2c(CN3CCN(S(=O)(=O)c4ccc5c(c4)OCCO5)CC3)cc(=O)oc2c1` came in with a z-score of -0.0216. As to `CCOc1cc(/C=N/N=C(/N)c2nonc2N)cc(Br)c1OCc1ccc(Cl)cc1`, the z-score was -0.226.

Regarding `Clc1cccc(N2CCN(Cc3nc(-c4ccccc4)no3)CC2)c1`, the z-score was -0.21.

For the molecule `N/C(=N\OC(=O)COc1ccc2ccccc2c1)c1ccccn1`, the z-score is -0.843. The result for `Cc1ccc(S(=O)(=O)N2CCN(C(=O)COc3ccc(NC(=O)c4ccco4)cc3)CC2)cc1` reads -0.0761; that for `O=C(CCn1c(=O)oc2ccccc21)NC1=NCCS1`, -1.31. The result for `COc1ccc(OC)c(NC(=O)C2CCCN(S(=O)(=O)c3cccc4nonc34)C2)c1` (stereo not drawn) reads 0.481; that for `CC(C)CCCC(C)NS(=O)(=O)Cc1ccccc1` (stereo not drawn), -0.305. In the case of `COC(=O)c1ccc(CNC(=O)c2ccc(COc3ccccc3)cc2)cc1` it was -0.175; in that of `CC(C)C(c1nnnn1CC1CCCO1)N1CCN(Cc2ccc3c(c2)OCO3)CC1` (stereo not drawn), -0.153. `Cc1ccc(N2CCN(CCc3nc4cc(NS(C)(=O)=O)ccc4n3C)CC2)cc1` registered a z-score of -1.79. The result for `O=C(CCCCCNc1nc(=S)[nH]c2ccccc12)NCCc1ccccc1` reads 0.302; that for `COc1ccc(CCNC(=O)CCSc2nc(-c3ccco3)cc(C(F)(F)F)n2)cc1OC`, -2.59; that for `Clc1ccc2nc(CSc3nnc4ccccn34)cn2c1`, -0.129. The molecule `CCN(CC)C(=O)Oc1ccc(NC(C)=O)cc1` yielded a z-score of 0.0908. Molecule `N#Cc1ccccc1N=Cc1ccc(Br)cc1` came in with a z-score of -0.164.

In turn, `O=C1c2ccccc2C(=O)N1CCCc1c[nH]c2ccccc12` yielded a z-score of -0.611. Molecule `Cc1ccc(NC(=O)CS(=O)CC(=O)NCC2CCCO2)cc1` (stereo not drawn) came in with a z-score of 0.0713. The result for `O=C1CCc2cc(S(=O)(=O)NC(Cc3ccccc3)C(=O)NC3CCCC3)ccc2N1` (stereo not drawn) reads 0.0438.
